The supplement of paper PMC8728848
Some of the results follow.

Experiments:
Assay in all cases: glycan array binding signal (z-score within array); higher = stronger binding
Details in all cases: glycan notation: IUPAC condensed, linker removed
[1] = biological target: Fuc(a1-2)[GalNAc(a1-3)]Gal(b1-3)GlcNAc(b1-3)GalNAc
How it was run: (§1)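 Negative Z-scores can be read as non-binding. The Z-score is calculated within each array and then averaged across arrays of one protein sequence at different concentrations or buffers and across linkers. Arrays, 3228 in all, were curated from the Consortium for Functional Glycomics database and kept only where the protein sequence was available.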

[2] = biological target: Fuc(a1-2)[GalNAc(a1-3)]Gal(b1-3)GlcNAc(b1-6)GalNAc
How it was run: as §1

[3] = biological target: Fuc(a1-2)[GalNAc(a1-3)]Gal(b1-4)Glc
How it was run: as §1

[4] = biological target: Fuc(a1-2)[GalNAc(a1-3)]Gal(b1-4)GlcNAc
How it was run: as §1

[5] = biological target: Fuc(a1-2)[GalNAc(a1-3)]Gal(b1-4)GlcNAc(b1-2)Man
How it was run: as §1

[6] = biological target: Fuc(a1-2)[GalNAc(a1-3)]Gal(b1-4)GlcNAc(b1-2)Man(a1-3)[Fuc(a1-2)[GalNAc(a1-3)]Gal(b1-4)GlcNAc(b1-2)Man(a1-6)]Man(b1-4)GlcNAc(b1-4)GlcNAc
How it was run: as §1

[7] = biological target: Fuc(a1-2)[GalNAc(a1-3)]Gal(b1-4)GlcNAc(b1-2)Man(a1-3)[Fuc(a1-2)[GalNAc(a1-3)]Gal(b1-4)GlcNAc(b1-2)Man(a1-6)]Man(b1-4)GlcNAc(b1-4)[Fuc(a1-6)]GlcNAc
How it was run: as §1

[8] = biological target: Fuc(a1-2)[GalNAc(a1-3)]Gal(b1-4)GlcNAc(b1-3)Gal(b1-4)GlcNAc
How it was run: as §1

[9] = biological target: Fuc(a1-2)[GalNAc(a1-3)]Gal(b1-4)GlcNAc(b1-3)Gal(b1-4)GlcNAc(b1-3)Gal(b1-4)GlcNAc
How it was run: as §1

[10] = biological target: Fuc(a1-2)[GalNAc(a1-3)]Gal(b1-4)GlcNAc(b1-3)GalNAc
How it was run: as §1

[11] = biological target: Fuc(a1-2)[GalNAc(a1-3)]Gal(b1-4)GlcNAc(b1-3)[Fuc(a1-2)[GalNAc(a1-3)]Gal(b1-4)GlcNAc(b1-6)]GalNAc
How it was run: as §1

[12] = biological target: Fuc(a1-2)[GalNAc(a1-3)]Gal(b1-4)GlcNAc(b1-6)GalNAc
How it was run: as §1

[13] = biological target: Fuc(a1-2)[GalNAc(a1-3)]Gal(b1-4)[Fuc(a1-3)]GlcNAc
How it was run: as §1

[14] = biological target: Fuc(a1-2)[GalNAc(a1-3)]Gal(b1-4)[Fuc(a1-3)]GlcNAc(b1-3)GalNAc
How it was run: as §1

[15] = biological target: Fuc(a1-2)[GalNAc(a1-4)]Gal(b1-4)GlcNAc
How it was run: as §1

[16] = biological target: Fuc(a1-2)[GalNAc(b1-3)]Gal
How it was run: as §1

Fuc(a1-3)GlcNAc = biological target: Fuc(a1-3)GlcNAc
How it was run: as §1

[17] = biological target: Fuc(a1-3)[Gal(b1-4)]Glc6S
How it was run: as §1

[18] = biological target: Fuc(a1-3)[Gal(b1-4)]GlcNAc
How it was run: as §1

[19] = biological target: Fuc(a1-3)[Gal(b1-4)]GlcNAc(b1-2)Man
How it was run: as §1

[20] = biological target: Fuc(a1-3)[Gal(b1-4)]GlcNAc(b1-2)Man(a1-3)[Fuc(a1-3)[Gal(b1-4)]GlcNAc(b1-2)Man(a1-6)]Man(b1-4)GlcNAc(b1-4)GlcNAc
How it was run: as §1

[21] = biological target: Fuc(a1-3)[Gal(b1-4)]GlcNAc(b1-2)Man(a1-3)[Fuc(a1-3)[Gal(b1-4)]GlcNAc(b1-2)Man(a1-6)]Man(b1-4)GlcNAc(b1-4)[Fuc(a1-6)]GlcNAc
How it was run: as §1

[22] = biological target: Fuc(a1-3)[Gal(b1-4)]GlcNAc(b1-3)Gal(b1-3)[Fuc(a1-4)]GlcNAc
How it was run: as §1

[23] = biological target: Fuc(a1-3)[Gal(b1-4)]GlcNAc(b1-3)Gal(b1-4)[Fuc(a1-3)]GlcNAc
How it was run: as §1

[24] = biological target: Fuc(a1-3)[Gal(b1-4)]GlcNAc(b1-3)Gal(b1-4)[Fuc(a1-3)]GlcNAc(b1-3)Gal(b1-4)[Fuc(a1-3)]GlcNAc
How it was run: as §1

[25] = biological target: Fuc(a1-3)[Gal(b1-4)]GlcNAc(b1-3)GalNAc
How it was run: as §1

[26] = biological target: Fuc(a1-3)[Gal(b1-4)]GlcNAc(b1-6)GalNAc
How it was run: as §1

[27] = biological target: Fuc(a1-3)[Gal(b1-4)]GlcNAc(b1-6)[Gal(b1-3)GlcNAc(b1-3)]Gal(b1-4)Glc
How it was run: as §1

[28] = biological target: Fuc(a1-3)[Gal(b1-4)]GlcNAc6S
How it was run: as §1

[29] = biological target: Fuc(a1-3)[Gal3S(b1-4)]Glc
How it was run: as §1

[30] = biological target: Fuc(a1-3)[Gal3S(b1-4)]GlcNAc
How it was run: as §1

[31] = biological target: Fuc(a1-3)[Gal3S(b1-4)]GlcNAc6S
How it was run: as §1

[32] = biological target: Fuc(a1-3)[GalNAc(b1-4)]GlcNAc
How it was run: as §1

[33] = biological target: Fuc(a1-3)[GalNAc(b1-4)]GlcNAc6S
How it was run: as §1

Fuc(a1-4)GlcNAc = biological target: Fuc(a1-4)GlcNAc
How it was run: as §1

Fuc(b1-3)GlcNAc = biological target: Fuc(b1-3)GlcNAc
How it was run: as §1

Gal(a1-2)Gal = biological target: Gal(a1-2)Gal
How it was run: as §1

B1: Dectin2 (Homo sapiens), Q6EIG7 (protein)
chain: MMQEQQPQSTEKRGWLSLRLWSVAGISIALLSACFIVSCVVTYHFTYGETGKRLSELHSYHSSLTCFSEGTKVPAWGCCPASWKSFGSSCYFISSEEKVWSKSEQNCVEMGAHLVVFNTEAEQNFIVQQLNESFSYFLGLSDPQGNNNWQWIDKTPYEKNVRFWHLGEPNHSAEQCASIVFWKPTGWGWNDVICETRRNSICEMNKIYL
[1]
  glycan array binding signal (z-score): -0.137
[2]
  glycan array binding signal (z-score): -0.205
[3]
  glycan array binding signal (z-score): -0.187
[4]
  glycan array binding signal (z-score): -0.167
[5]
  glycan array binding signal (z-score): -0.173
[6]
  glycan array binding signal (z-score): -0.077
[7]
  glycan array binding signal (z-score): 0.02
[8]
  glycan array binding signal (z-score): -0.21
[9]
  glycan array binding signal (z-score): -0.134
[10]
  glycan array binding signal (z-score): -0.178
[11]
  glycan array binding signal (z-score): -0.199
[12]
  glycan array binding signal (z-score): -0.202
[13]
  glycan array binding signal (z-score): -0.078
[14]
  glycan array binding signal (z-score): -0.089
[15]
  glycan array binding signal (z-score): -0.122
[16]
  glycan array binding signal (z-score): -0.178
Fuc(a1-3)GlcNAc
  glycan array binding signal (z-score): -0.106
[17]
  glycan array binding signal (z-score): 0.164
[18]
  glycan array binding signal (z-score): -0.162
[19]
  glycan array binding signal (z-score): -0.143
[20]
  glycan array binding signal (z-score): -0.206
[21]
  glycan array binding signal (z-score): -0.117
[22]
  glycan array binding signal (z-score): 0.239
[23]
  glycan array binding signal (z-score): -0.088
[24]
  glycan array binding signal (z-score): -0.165
[25]
  glycan array binding signal (z-score): -0.17
[26]
  glycan array binding signal (z-score): -0.126
[27]
  glycan array binding signal (z-score): -0.186
[28]
  glycan array binding signal (z-score): 0.215
[29]
  glycan array binding signal (z-score): -0.124
[30]
  glycan array binding signal (z-score): -0.117
[31]
  glycan array binding signal (z-score): -0.149
[32]
  glycan array binding signal (z-score): -0.105
[33]
  glycan array binding signal (z-score): -0.154
Fuc(a1-4)GlcNAc
  glycan array binding signal (z-score): -0.102
Fuc(b1-3)GlcNAc
  glycan array binding signal (z-score): 0.296
Gal(a1-2)Gal
  glycan array binding signal (z-score): -0.154
